Assay results: paper PMC4336329 (PLoS ONE, 2015)
Screen size: about 310,000 compounds; about 2,200 (0.71%) showed an effect of 50% or more. Effects have a minus sign here. This is one part of the list.

biological target: human ether-à-go-go-related gene (hERG) potassium channel (human, UniProt Q12809); experiment: primary screen, population patch clamp on CHO cells stably expressing hERG
Sequence (Q12809 whole entry, looked up): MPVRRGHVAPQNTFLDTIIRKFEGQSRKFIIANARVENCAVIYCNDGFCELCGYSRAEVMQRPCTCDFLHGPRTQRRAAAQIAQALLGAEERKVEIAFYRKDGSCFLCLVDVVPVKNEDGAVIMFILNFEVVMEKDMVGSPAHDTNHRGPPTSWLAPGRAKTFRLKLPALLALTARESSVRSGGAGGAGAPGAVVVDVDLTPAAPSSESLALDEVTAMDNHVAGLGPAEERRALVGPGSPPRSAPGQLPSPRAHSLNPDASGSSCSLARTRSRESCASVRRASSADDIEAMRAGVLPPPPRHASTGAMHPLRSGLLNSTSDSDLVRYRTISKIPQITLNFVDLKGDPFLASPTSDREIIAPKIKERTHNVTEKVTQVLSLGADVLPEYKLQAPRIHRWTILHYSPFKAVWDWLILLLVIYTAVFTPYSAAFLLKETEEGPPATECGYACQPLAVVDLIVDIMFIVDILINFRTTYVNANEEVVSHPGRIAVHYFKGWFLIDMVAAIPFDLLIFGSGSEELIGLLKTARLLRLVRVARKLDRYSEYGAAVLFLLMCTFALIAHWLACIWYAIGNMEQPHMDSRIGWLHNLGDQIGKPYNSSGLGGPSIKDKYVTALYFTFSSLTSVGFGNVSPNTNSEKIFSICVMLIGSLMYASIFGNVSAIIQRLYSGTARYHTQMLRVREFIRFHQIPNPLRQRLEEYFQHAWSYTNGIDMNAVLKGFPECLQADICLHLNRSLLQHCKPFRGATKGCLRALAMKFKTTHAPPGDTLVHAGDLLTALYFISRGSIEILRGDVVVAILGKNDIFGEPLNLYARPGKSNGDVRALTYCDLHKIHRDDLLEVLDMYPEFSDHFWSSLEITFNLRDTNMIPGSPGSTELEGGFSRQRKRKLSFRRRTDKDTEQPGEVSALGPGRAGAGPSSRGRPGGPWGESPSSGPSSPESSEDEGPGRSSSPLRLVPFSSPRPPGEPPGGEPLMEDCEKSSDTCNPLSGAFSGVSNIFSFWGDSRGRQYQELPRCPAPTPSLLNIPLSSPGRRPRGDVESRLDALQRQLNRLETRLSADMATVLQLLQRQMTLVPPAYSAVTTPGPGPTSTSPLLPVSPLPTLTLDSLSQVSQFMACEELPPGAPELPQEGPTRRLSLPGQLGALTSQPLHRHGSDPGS

SMILES	hERG current change (%, negative = inhibition) at 1uM [%]
O=C(NCCNC(=O)c1cc(OCC(F)(F)F)ccc1OCC(F)(F)F)Nc1ccc(Cl)cc1	2.41
CC(O)CC(=O)O (stereo not drawn)	10.3
CC(=O)c1cnc(Nc2nc(C)c3cc(C)c(C)cc3n2)nc1C	13.5
CCOc1ccc(OCC)c(NC(=O)c2nnn(CC(=O)Nc3cc(C)cc(C)c3)c2N)c1	18
COc1ccc(C2CC(c3ccc(OC)cc3OC(C)=O)=NN2C(=O)c2ccccc2)cc1 (stereo not drawn)	2.33
O=C(O)CC12CC3CC(C1)CC(n1ncc(NCc4ccccc4Cl)c(Cl)c1=O)(C3)C2	4.29
NC(=O)c1nn(-c2ccc(Oc3ccccc3)cc2)c(=O)cc1O	14.5
Cc1ccc2c(c1)nnn2C1CCN(C(=O)C23CC4CC(CC(C4)C2)C3)CC1	10.9
O=C(NCC1CCCN1S(=O)(=O)c1cccs1)c1ccccc1F (stereo not drawn)	7.3
O=C(N/N=C/c1ccc2c(c1)OCO2)c1ccc(Cn2cc([N+](=O)[O-])cn2)o1	4.15
O=[N+]([O-])c1cc(C(F)(F)F)ccc1Cl	15.2
CN(C)CCN(Cc1ccc(Cl)cc1)c1ccccn1.Cl	-57.1
Cc1ccc(S(=O)(=O)NC(=O)c2ccc(F)cc2)c(C)c1	14.3
COc1ccc(S(=O)(=O)O/N=C2\CCSc3ccc(C)cc32)cc1	5.08
Cc1cccc(NC(=O)CSCC(=O)NCc2cccc(C(F)(F)F)c2)c1	9.95
CSc1ccc(S(=O)(=O)N2CCC(C(=O)NCCN3CCOCC3)CC2)cc1	11
CCOC(=O)/C(=N/Nc1ccc(Cl)cc1)S(=O)(=O)c1ccc(Cl)cc1	8.34
COc1ccccc1NC(=O)CSc1nnc(CNC(=O)c2cccs2)o1	18.3
Cn1c(=O)c2c(nc(CN3CCN(CCO)CC3)n2Cc2ccccc2Cl)n(C)c1=O	5.48
CC(C)(C)/C(O)=C(/C#N)c1nc2ccccc2[nH]1	11.3
CCOc1ncccc1C(=O)OCC(=O)c1cccc(Br)c1	11.4
COc1ccc(N2CCN(CCNC(=O)Nc3cc(Cl)ccc3Cl)CC2)cc1	17.5
COc1ccc(-c2c(C#N)c(SCC(=O)c3cc4ccccc4oc3=O)nc(C)c2C(=O)Nc2ccccc2)cc1	6.52
Cc1ccc2nsnc2c1S(=O)(=O)N(Cc1ccco1)Cc1cc2cccc(C)c2[nH]c1=O	8.25
